Measured values taken from publication PMC4336329 (PLoS ONE, 2015).
About 14,000 (4.5%) of roughly 310,000 compounds showed an effect of 50% or more. Effects have a minus sign here. The list shows a part of the results.

molecular target: human ether-à-go-go-related gene (hERG) potassium channel (human, UniProt Q12809); experiment: primary screen, population patch clamp on CHO cells stably expressing hERG
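Further: peak tail current of the secondary pulse compared with the same well before compound.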

Chain of human ether-à-go-go-related gene (hERG) potassium channel (Q12809 whole entry, looked up): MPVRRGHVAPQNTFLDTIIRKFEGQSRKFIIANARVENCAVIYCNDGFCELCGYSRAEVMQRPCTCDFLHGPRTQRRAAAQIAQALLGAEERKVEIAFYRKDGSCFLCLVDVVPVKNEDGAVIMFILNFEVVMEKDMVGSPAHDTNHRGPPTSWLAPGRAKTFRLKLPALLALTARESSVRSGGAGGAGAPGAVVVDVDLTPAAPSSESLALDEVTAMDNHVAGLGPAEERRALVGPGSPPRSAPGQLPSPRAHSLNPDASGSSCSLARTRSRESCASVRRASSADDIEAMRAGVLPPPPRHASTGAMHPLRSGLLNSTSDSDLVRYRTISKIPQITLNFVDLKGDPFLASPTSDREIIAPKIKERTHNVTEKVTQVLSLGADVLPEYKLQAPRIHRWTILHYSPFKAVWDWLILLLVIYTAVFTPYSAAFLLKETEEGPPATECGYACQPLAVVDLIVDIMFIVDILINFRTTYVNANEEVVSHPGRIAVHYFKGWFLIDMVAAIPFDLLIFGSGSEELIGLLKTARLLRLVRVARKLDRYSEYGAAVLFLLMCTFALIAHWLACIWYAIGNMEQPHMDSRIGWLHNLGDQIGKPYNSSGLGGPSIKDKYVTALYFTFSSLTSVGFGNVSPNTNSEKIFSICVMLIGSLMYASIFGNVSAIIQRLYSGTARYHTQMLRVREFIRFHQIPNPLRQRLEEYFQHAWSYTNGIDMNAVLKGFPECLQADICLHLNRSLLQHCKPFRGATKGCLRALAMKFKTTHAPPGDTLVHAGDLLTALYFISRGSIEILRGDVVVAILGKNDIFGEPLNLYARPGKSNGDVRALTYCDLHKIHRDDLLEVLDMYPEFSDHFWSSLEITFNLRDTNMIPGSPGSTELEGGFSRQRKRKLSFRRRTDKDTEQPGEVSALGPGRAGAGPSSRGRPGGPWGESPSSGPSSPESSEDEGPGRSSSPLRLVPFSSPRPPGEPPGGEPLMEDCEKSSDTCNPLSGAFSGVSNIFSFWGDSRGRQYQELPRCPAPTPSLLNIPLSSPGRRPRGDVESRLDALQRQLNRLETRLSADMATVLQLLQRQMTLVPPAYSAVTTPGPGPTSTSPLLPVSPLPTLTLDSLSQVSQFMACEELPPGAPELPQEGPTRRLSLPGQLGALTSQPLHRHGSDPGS

SMILES	hERG current change (%, negative = inhibition) at 10uM
CC(C)CCN1CCNC(=O)C1CC(=O)Nc1ccc(F)cc1 (stereo not drawn)	-0.605%
Cc1cc(N2CCOCC2)nc2ccc(NC(=S)N3CCN(Cc4ccccc4)CC3)cc12	-33.6%
CCOc1ccc(OCCC(=O)OCC(=O)NCCc2ccc(S(N)(=O)=O)cc2)cc1	-4.49%
C=CCc1ccc(OCC(O)CN2CCN(c3ccccc3OC)CC2)c(OC)c1.Cl (stereo not drawn)	-16.2%
CCCc1nc(SCc2ccc(Cl)cc2Cl)n[nH]1	-25.6%
O=C(c1ccc2ncsc2c1)N1CCN(c2nc3ccccc3s2)CC1	-12%
CCOc1ccccc1NC(=O)NC1Cc2ccccc2C1	24.5%
CN1CCN(NC(=O)CN2C(=O)/C(=C/c3ccccc3F)SC2=S)CC1	-6.73%
Cl.N[C@@H](Cc1ccc(O)cc1)c1nnc([C@H](CCC(=O)O)NC(=O)C2CCNCC2)o1	6.03%
O=C(NCCCC1CCCC1)C1CCC(=O)N(Cc2ccccc2F)C1 (stereo not drawn)	-9.03%
CCOC(=O)c1nn(-c2ccc(F)cc2)c(=O)cc1OCC(=O)Nc1ccc(OCC)cc1	-3.74%
CC(C)Cc1nnc(NC(=O)CC(C)c2ccccc2)s1 (stereo not drawn)	2.75%
O=C(c1cccs1)N(Cc1ccco1)C1CCS(=O)(=O)C1 (stereo not drawn)	-13.5%
CC(Sc1nnc(NC2CCCCC2)s1)C(=O)Nc1ccc2c(c1)C(=O)c1ccccc1C2=O (stereo not drawn)	-10.1%
COC(=O)C1=C(c2ccc(Cl)c(C(F)(F)F)c2)C[C@@H]2CC[C@H]1N2C(=O)NCCCOC(C)C	-29.8%
O=C(NNC(=O)c1ccc2ccccc2c1O)Nc1ccc(F)cc1	10.3%
CC(=O)N1CCN(C(=S)c2cccc([N+](=O)[O-])c2)CC1	8.96%
Cc1ccc(CNCC(=O)Nc2ccc(C)cc2Br)cc1	-10.2%
CCCCNCCOCCOc1ccc(Cl)cc1Br.O=C(O)C(=O)O	-57.9%
O=C(CC12CC3CC(CC(C3)C1)C2)Nc1ccc(C(=O)O)cc1	-2.49%
COc1ccc(OCc2cc(C(=O)N3CCCCCC3)no2)c(Cl)c1	-11.7%
COc1cc(C(=O)NCc2nnc(SCC(=O)NCc3ccccc3)o2)cc(OC)c1OC	17.6%

SMILES	hERG current change (%, negative = inhibition) at 10uM
Cc1ccc(OCCNC(=O)c2ccc(C)cc2)cc1	0.523%
O=C(N/N=C/c1ccc(O)cc1)c1ccncc1	23.6%
CC(C)Cn1c(CCC(N)=O)nnc1SC(C)C(=O)Nc1ccc2c(c1)OCO2 (stereo not drawn)	7.42%
Cc1cc(=O)oc(C)c1C(=O)N1CCc2c([nH]c3ccccc23)C1C(C)C (stereo not drawn)	-2.64%
CCCN1CCC(=NNc2ccc(S(=O)(=O)N3CCOCC3)cc2[N+](=O)[O-])CC1	-17.5%
Cc1ccc(N2C(=O)c3ccccc3C2=O)nc1	19.7%
COCCCN1C(=O)C(=O)/C(=C(/O)c2ccc(S(=O)(=O)N3CCOCC3)cc2)C1c1ccc(F)cc1 (stereo not drawn)	-2.75%
O=C(O)C(=O)O.c1ccc2c(CCNC3CCCCC3)c[nH]c2c1	-6.11%
CCCCN(C)CCNC(=O)c1cn(C)c(=O)c2c1c1ccccc1n2C	2.23%
CN(C)c1ccc(/C=C2\CCCCC2=O)cc1	-3.05%
CC(=O)c1c(C)n(C)c2ccc(OC(=O)c3ccc([N+](=O)[O-])cc3)cc12	17.2%
CN(CC(=O)O)S(=O)(=O)c1ccc2c(c1)n(C)c(=O)c(=O)n2C	19.1%
C=CCN1C=CC(=C/C=C(/C#N)C(=O)OCC)C=C1	-0.351%
CC(=O)C1=C(C)NC(SCC(=O)c2ccc(-c3ccccc3)cc2)=C(C#N)C1c1cccnc1 (stereo not drawn)	8.4%
Cc1nc2ccc(S(=O)(=O)N(C)CC(=O)NCCc3ccccc3)cc2s1	-3.16%
O=C(NC1CCCC1)C(c1ccncc1)N(Cc1ccco1)C(=O)c1ccc(-c2ccccc2)[nH]1 (stereo not drawn)	1.38%
O=C(NCCc1c[nH]c2ccccc12)/C(=C/c1cccnc1)NC(=O)c1ccccc1	-14.3%
COC(=O)c1cn(NC(=O)Cn2nc([N+](=O)[O-])c(Br)c2C)c(=O)c2ccccc12	25.2%
C=CCOc1ccc(CNC(C)(C)C)cc1OC.Cl	-17%
CC1(C)Oc2ccc(C(=O)N3CCOCC3)cc2N(CC(=O)Nc2ccccc2)C1=O	-1.86%
NS(=O)(=O)c1cccnc1Nc1cccc(Cl)c1Cl	-3.35%
N#CC1(NC(=O)COc2ccccc2[N+](=O)[O-])CCCCC1	3.83%

SMILES	hERG current change (%, negative = inhibition) at 10uM
S=C(NCCC(c1ccccc1)c1ccccc1)Nc1cccc(Cl)c1	16.3%
COc1ccc(Oc2nc(OC)cc(OC)n2)cc1	15.4%
Cc1ccccc1OC(=O)CCC(=O)OCCCC(F)(F)C(F)(F)F	28.2%
CC(C)c1nnc(NC(=O)CSc2ccccc2)s1	20.4%
CCC(=O)N(Cc1cc2cc(OC)ccc2[nH]c1=O)c1cc(C)ccc1C	5.17%
CC(C)c1cccc(C(C)C)c1NC(=O)COC(=O)c1ccc2c(c1)S(=O)(=O)c1ccccc1C2=O	14.4%
COC(=O)c1ccc(CSc2nc3c(cnn3-c3ccccc3)c(=O)[nH]2)o1	4.11%
O=C1CCC(=O)N1c1ccc(NCCc2ccccc2F)c([N+](=O)[O-])c1	8.08%
O=C(NCCN1CCCC1)c1ccc(Cn2c(=S)[nH]c3cc4c(cc3c2=O)OCO4)cc1	-0.433%
Cc1ccc2nc(SCC(=O)NCc3ccc(F)cc3)[nH]c2c1	-10.9%
CCOc1ccc(C(=O)Nc2cccc3cccnc23)cc1	16.7%
Cc1ccc(S(=O)(=O)N2C(=O)CCC2C(=O)Nn2cnnc2)cc1 (stereo not drawn)	5.62%
O=C(C1CCN(S(=O)(=O)c2cccs2)CC1)N1CCCCC1	6.43%
Cc1nc2cc(S(=O)(=O)N(C)C)ccc2n1-c1ccccc1	-0.127%
CCN(CC)CCn1c2c(c(SCC(=O)NCc3ccccc3)nc1=O)CCC2	-38.7%
COc1ccc(-n2c(=S)[nH]c3cc(C(=O)Nc4ccc(C)c(F)c4)ccc3c2=O)c(OC)c1	19.8%
CCCC12CN3CC(CCC)(CN(C1)C3c1ccccn1)C2=O (stereo not drawn)	-22.3%
Cc1ccc(CN2CCC(Oc3cccc(C(=O)N(C)CCN(C)C)c3)CC2)cc1C	5.34%
CC1(N2CCCCC2)C(=O)c2ccccc2C1=O	15.4%
O=C(CCCC(=O)NCc1ccccc1)NCc1ccccc1	-3.55%
Cc1cccc(C)c1NC(=O)CNC(=O)C1CCCC1	2.19%
COc1ccc(C2/C(=C(/O)c3ccccc3)C(=O)C(=O)N2c2ccccn2)c(OC)c1 (stereo not drawn)	10.8%

SMILES	hERG current change (%, negative = inhibition) at 10uM
Cc1ccccc1N(C(=O)CNC(=O)c1cccs1)C(C(=O)NC1CCCC1)c1ccncc1 (stereo not drawn)	-1.58%
CC(C)N1CCN(C(=O)c2cccc(Cl)c2)CC1.O=C(O)C(=O)O	10.2%
Cc1onc(-c2c(Cl)cccc2Cl)c1C(=O)NCc1cccs1	-9.65%
O=C(COC(=O)C1=COCCO1)Nc1cccc(Oc2ccccc2)c1	-44%
COCCNC(=O)CN1CCC(NC(=O)C(C)(C)C)CC1	-6.88%
CSc1ccccc1NC(=O)CN(C)CC(=O)Nc1ccccc1F.O=C(O)C(=O)O	1.1%
CCOC(=O)c1[nH]c2ccccc2c1NC(=O)c1ccc(Br)o1	-8.9%
O=[N+]([O-])c1ccc(S(=O)(=O)N2CCN=C2SCc2cccnc2)cc1	-68.1%
O=C(CCc1nc2ccccc2c(=O)[nH]1)NC1CCN(Cc2ccccc2)CC1	-0.782%
COc1ccc(OC)c(N(CC(=O)Nc2ccc(NC(C)=O)cc2)S(C)(=O)=O)c1	8.05%
CCc1cc(OCCN2C(=O)NC(C)(C)C2=O)ccc1Cl	-1.23%
COC(=O)c1ccc(COC(=O)CNC(=O)CNC(=O)c2ccc(OC)cc2)cc1	-6.8%
CCN1C(C)=C(C)S/C1=C1\SC(=S)N(NC(C)=O)C1=O	18.7%
COc1ccccc1C(=O)Nc1ccc(C(=O)c2ccccc2)cc1	22.2%
Cc1ccc(N/C=C/C(=O)c2sc(-c3ccccc3)nc2C)cc1	7.73%
COc1ccc2c(c1)NC1(O)c3ccccc3C(=O)C21O (stereo not drawn)	-22.5%
O=c1c2ccccc2c(=O)n2n1Cc1ccccc1C2	9.51%
CCOc1ccc(S(=O)(=O)N2CCC(C(=O)Nc3cccc(NC(C)=O)c3)CC2)cc1	17.9%
CCN(c1ccc(OC)cc1)S(=O)(=O)c1ccc(-c2cc(C)no2)s1	-15.6%
O=C(Nc1ccc(Cl)cn1)c1ccc(Oc2ccccc2)cc1	2.48%
O=C(CCNC(=O)C1CCN(S(=O)(=O)c2ccccc2)CC1)NC1CC1	15.6%
